For 85 compounds, activation results are on record in PubChem BioAssay AID1346428 (National Center for Advancing Translational Sciences (NCATS), 2018).

The whole screen tested about 48,000 compounds, of which about 1,200 (2.5%) were called active. Inconclusive results (about 2%) are left out.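 How the source made its calls: active means activation of at least 60% and not above a set upper limit (about 1 call in 100 departs from these limits); inconclusive means activation of 40% to 60%, or above that upper limit; inactive means activation under 40%.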 This is one part of the list.

Sequence of UniProt O75388 (O75388 whole entry, looked up, the tested form may be a part): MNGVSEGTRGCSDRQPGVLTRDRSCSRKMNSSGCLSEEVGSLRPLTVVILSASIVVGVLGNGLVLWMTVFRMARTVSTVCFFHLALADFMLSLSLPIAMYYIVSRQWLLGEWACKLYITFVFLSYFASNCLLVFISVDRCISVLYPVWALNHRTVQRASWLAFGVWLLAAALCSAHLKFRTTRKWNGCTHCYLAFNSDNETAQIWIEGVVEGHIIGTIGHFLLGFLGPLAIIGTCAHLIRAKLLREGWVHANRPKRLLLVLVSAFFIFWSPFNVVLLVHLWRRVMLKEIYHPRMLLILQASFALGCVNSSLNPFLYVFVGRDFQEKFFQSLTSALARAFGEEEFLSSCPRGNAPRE

This assay addresses Probable G-protein coupled receptor 32 (Homo sapiens) (UniProt O75388). The assay is described as follows: qHTS for Agonists of Human Resolvin D1 Receptor DRV1. The following applies: CHO-K1 GPR32 beta-arrestin PathHunter luminescence, 90 min; at 76.9 µM; hits give high values; zero percent set by DMSO-only wells. In short, it runs like this:
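PathHunter enzyme-fragment complementation, CHO-K1 GPR32 stable line; 2,500 cells/well, overnight attach; cpd 90 min 37 °C 5% CO2; detection reagent 1 h RT; chemiluminescence. DMSO = EC0.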
(In general: In qHTS, concentration-response curves come from the screen itself.)
Turning to `CCCSc1ncc(Cl)c(C(=O)Nc2sc3c(c2C(N)=O)CCCC3)n1`, the activation is inactive: -7.45%. Under `Cc1ccccc1CNC(=O)Cc1csc2ccccc12` stands inactive: -20.8%.

For the compound `COc1ccccc1NC(=O)CCNS(=O)(=O)c1ccc2c(c1)CCN2C(=O)C1CC1`, the activation was inactive: 49.2%. Then `COC(=O)c1ccc(-n2nnc(-c3nsc(NC(=O)c4ccc(Cl)cc4)n3)c2C)cc1`, with inactive: -9.91%. Under `O=c1c(NCCc2ccc(Cl)cc2)nccn1-c1ccccc1` stands active: 91.1%; under `Cc1ccc(C)c(N2CCN(S(=O)(=O)c3ccc(F)c(C(=O)Nc4ccc(Cl)cc4Cl)c3)CC2)c1`, inactive: -14.4%. Then `Cc1cc2n(n1)CCCN2C(=O)Nc1ccc(C)c(Cl)c1`, with inactive: -3.15%. As for `COc1ccc(OC)c(CCNC(=O)c2cc3cccc4c3n2CCS4)c1`, the activation is inactive: -16.1%. Under `CCOC(=O)c1c(C)oc2ccc(N(C(=O)c3ccncc3)S(=O)(=O)c3ccc(F)cc3)cc12` stands inactive: -6.66%. Under `CN(c1ccccc1)S(=O)(=O)c1nnc(NC(=O)c2cccs2)s1` stands inactive: 36%; under `CCN(Cc1ccccc1)C(=O)CCS(=O)(=O)c1cc(Br)cc2c1N(C(=O)C1CC1)CC2`, inactive: -11.4%; under `CCc1ccccc1N(C)C(=O)c1cc2c(Cl)nc3ccc(C)cc3c2s1`, inactive: -9.28%. Under `Cc1ccc2[nH]c3c(=O)n(CC(=O)NCCCN4CCN(c5ccc(F)cc5)CC4)ncc3c2c1` stands inactive: -11.7%; under `CCOc1ccccc1NC(=O)Cn1c(=O)n(CCCCC(=O)NCCCOC)c(=O)c2ccccc21`, inactive: -19.1%; under `c1ccc2[nH]ccc2c1`, inactive: -5.14%.

As to `N#Cc1ccccc1Cn1c(=O)n(-c2ccccc2)c(=O)c2c3c(sc21)CCC3`, the activation was inactive: -13.4%.

For the compound `O=C(NCc1cccc(F)c1)C1CCN(c2nn3cc(-c4ccc(F)cc4)nc3s2)CC1`, the activation is inactive: 8.02%. Then `CCc1ccc(NC(=O)Cn2nnc(C(=O)NCCc3ccccc3)c2N)cc1`, with inactive: -2.9%; and `O=C(Nc1ccc(O)c(-c2nc3ccccc3o2)c1)c1ccc(-c2cccc(Cl)c2)o1`, with inactive: 10.7%.

Take `Cc1cccc(C)c1NC(=O)c1nc(SC(C)C)ncc1Cl`: the activation was inactive: -2.51%. Under `Cc1ccccc1CNCCSc1nnnn1C` stands inactive: 1.93%; under `CC1CCN(S(=O)(=O)c2ccc3c(c2)oc(=O)n3CC(=O)N2CCCCC2)CC1`, inactive: 6.75%; under `Cc1cc(C)cc(N(CC(=O)Nc2ccc(C)cc2Cl)S(=O)(=O)c2c(C)[nH]c(=O)[nH]c2=O)c1`, active: 78.6%. Then `COCCCNC(=O)C1CCN(C(=O)c2ccc(-n3ccc4ccccc43)s2)CC1`, with inactive: 6.32%; and `Cc1ccc(CN2C(=O)C3(c4ccccc42)N(c2ccc(C)c(Cl)c2)C(=O)CS3(=O)=O)cc1` (stereo not given), with inactive: 4.21%; and `CCc1nc2sc3c(N4CCCCC4)ncnc3c2c2c1CCCC2`, with inactive: 13.2%. Then `Cc1cccc(C)c1NC(=O)c1ccc(N)cc1`, with inactive: -13.7%; and `COc1cccc(/C=C(\C#N)C(=O)Nc2ccc(NC(C)=O)cc2)c1OC`, with inactive: -20.4%. Turning to `COc1ccc(NC(=O)CSc2cn(CCNC(=O)c3ccc(OC)cc3)c3ccccc23)cc1`, the activation is inactive: 11.7%. Consider `O=C(CCC1N=C2c3ccccc3N=C(SCc3cccc(Cl)c3)N2C1=O)NCCc1ccccc1` (stereo not given), for which the activation is inactive: 19.7%. As for `COc1ccc(NC(=O)CCS(=O)(=O)c2ccc3c(c2)n(C)c(=O)c(=O)n3C)cc1Cl`, the activation is inactive: -3.52%. Then `CCCCC(O)/C=C(C)/C=C/C=C/C(=O)N1CCCC1=O` (stereo not given), with inactive: -17.1%.

On to `Cc1oc(-c2cccc(Br)c2)nc1Cn1c(SCc2cccc(F)c2)nc2cccnc21`, for which the activation is inactive: -19.9%.

On to `CCC(C)[C@H](N)c1nnc(SCc2ccc(Cl)c(Cl)c2)o1` (stereo not given in full), for which the activation is inactive: 13.9%. Under `COc1ccc(Br)cc1CNC(=O)CSc1n[nH]c(-c2ccccc2)n1` stands inactive: -8.79%; under `CCn1c(CN2CCCCC2)nc2cc(NC(=O)COc3ccc(C(C)(C)C)cc3)ccc21`, inactive: 1.03%. Under `CN1CCN(C2=Nc3cc(F)ccc3Cc3ccccc32)CC1` stands inactive: -6.02%; under `Cc1oc2ccc(O)c(CN3CCC(C)CC3)c2c1C(=O)Nc1ccccc1`, inactive: 17.2%. Under `COc1ccc2c(c1)NC(c1ccc(Cl)cc1)=NC(c1cccs1)=N2` stands inactive: -17.5%. In the case of `Cc1ccc(S(=O)(=O)NCCSc2nnnn2-c2ccccc2)cc1`, the activation was inactive: -1.02%. Under `CCCN1C(=O)C(Cc2nc3ccccc3c(=O)n2CC)c2cc(Br)ccc21` (stereo not given) stands inactive: -10.9%.

For the compound `CC(C)(C)c1ccc(-c2nnc(-c3ccccc3NC(=O)c3cccc(C(F)(F)F)c3)o2)cc1`, the activation was inactive: 4.17%. Consider `Cc1ccc(C)c(Cn2c(=O)n(Cc3ccccc3)c(=O)c3sc4ccccc4c32)c1`, for which the activation is inactive: 11.1%. Under `COc1cc(NC(=O)CCCc2nnc3n(C)c(=O)c4sccc4n23)cc(OC)c1OC` stands inactive: -10.6%; under `Cc1ccc(CNC(=O)CSc2c(C(C)C)cnc3c2c(=O)n(C)c(=O)n3C)cc1`, inactive: -16.7%. Then `O=C(CSCc1ccc(F)cc1)NCc1ccc(F)cc1`, with inactive: -10.3%. Under `Cc1cccc(CC(=O)N2CC(=O)Nc3ccc(F)cc3C2c2ccccc2)c1` (stereo not given) stands inactive: -17.5%. Consider `NC(N)=NC(N)=Nc1cccc(Cl)c1`, for which the activation was inactive: 2.48%. On to `CCC(CC)C(=O)N1CCc2cc(OC)c(OC)cc2C1COc1ccc(F)cc1` (stereo not given), for which the activation is inactive: 2.12%. Then `CCc1ccccc1NC(=O)Nc1ccc2snnc2c1`, with inactive: 46.2%; and `CCc1ccc(NS(=O)(=O)c2ccc3[nH]c4c(c3c2)CCCCCC4)cc1`, with inactive: 40.3%. Under `Cc1cccc(-n2ncc(C(=O)NCc3ccc4c(c3)OCO4)c2C2CCN(C(=O)OC(C)(C)C)CC2)c1` stands inactive: -20.5%; under `O=C(CSc1nc(Nc2ccc(F)c(F)c2)c2ccccc2n1)c1ccc(Cl)cc1`, inactive: -16.5%; under `COc1ccc(-c2cccc(NS(=O)(=O)c3ccc(NC(C)=O)cc3)c2)nn1`, inactive: 35.7%.

Take `CC(C)(C)OC(=O)N1CCC(c2c(C(=O)NCCN3CCOCC3)cnn2-c2ccc(F)cc2F)CC1`: the activation is inactive: 0.021%.

For `CCCCN(C)CCNC(=O)c1cc(-c2ccc(Cl)s2)nc2ccccc12`, the activation is inactive: 47.4%. Then `CCc1ccc(NC(=O)CN2C(=O)CC(c3ccccc3)Sc3ccccc32)cc1` (stereo not given), with inactive: -14.2%; and `CCOc1ccccc1Nc1nc2c(S(=O)(=O)c3ccc(C)cc3)nnn2c2ccsc12`, with inactive: -6.74%; and `CCOC(=O)c1c(-c2ccccc2)csc1NC(=O)c1nc(SCC)ncc1Cl`, with inactive: 20.5%. For `Cc1ccc(-c2nc3scc(CCNS(=O)(=O)c4ccc(Oc5ccccc5)cc4)n3n2)cc1`, the activation was inactive: -4.68%. With `Cc1ccc2nc(CSc3nnc(NC(=O)c4ccc(C(C)(C)C)cc4)s3)cc(=O)n2c1`, the activation was inactive: -2.2%. Regarding `CC(=O)Nc1ccc(NC(=O)c2ncoc2-c2ccco2)cc1`, the activation is inactive: -0.334%.

`CCOc1cc(/C=C(\C#N)C(=O)Nc2ccc(OC)cc2)ccc1OCc1cc(=O)n2nc(CC)sc2n1`: the activation is inactive: 3.37%. For `CCc1cccc(C)c1NC(=O)CN1C(=O)c2cccc3cccc1c23`, the activation is inactive: 17.1%. Under `CCCCCNC(=O)C1CCC(Cn2c(=O)c3sccc3n(CC)c2=O)CC1` (stereo not given) stands inactive: -2.94%; under `COc1ccc(-c2ccnc3c2c(=O)n(C)c(=O)n3C)cc1OC`, inactive: 0.618%. Then `COCCCNC(=O)CCCN1C(=O)CCn2nc(-c3cn(C)c4ccccc34)cc21`, with inactive: -4.54%; and `Cc1ccc(C)c(N2CCN(CCCNc3ncnc4onc(-c5ccc(Cl)cc5)c34)CC2)c1`, with inactive: 11.1%.

As to `CCN(C(=O)C(NS(=O)(=O)c1cccc2nsnc12)c1ccccc1)c1ccccc1` (stereo not given), the activation was inactive: -24.3%.

Turning to `Cc1ccc(NC(=O)[C@H](CSCc2ccccc2)N2Cc3ccccc3C2=O)cc1`, the activation was inactive: -3.04%. Then `COc1ccc(OC)c(CNC(=O)CCS(=O)(=O)c2ccc3c(c2)oc(=O)n3C)c1`, with inactive: 2.88%; and `Cc1cc(Nc2ccc(C)c(Cl)c2)n2nc(-c3ccccc3)nc2n1`, with inactive: 2.24%. `Cc1ccc(C(=O)N2c3nc(-c4ccco4)nn3C3(CCCCC3)[C@@H]3CCCC[C@@H]32)cc1`: the activation is inactive: -29.9%. Under `Cc1cc(C)c(NC(=O)CN2C(=O)c3cccnc3Oc3ccc(Cl)cc32)c(C)c1` stands inactive: -16%; under `CC1CCN(S(=O)(=O)c2cccc(C(=O)NC3CCS(=O)(=O)C3)c2)CC1` (stereo not given), inactive: -12.4%. With `Cc1csc2nc(-c3cccc(NC(=O)c4ccc(S(N)(=O)=O)cc4)c3)cn12`, the activation was inactive: 27.3%. Then `Cn1c(=O)c2c(-c3ccccc3)n3c(c2n(C)c1=O)C(c1cc(Cl)ccc1O)Nc1ccccc1-3` (stereo not given), with inactive: 9.19%; and `O=C(CCNS(=O)(=O)c1cccc2nsnc12)Nc1ccc(F)cc1`, with inactive: -13.9%. Under `Cc1ccc2cccc(NC(=O)c3ccc(-c4ccc(Cl)cc4Cl)o3)c2n1` stands inactive: 7.88%; under `COc1ccc(OC)c(CNC(=O)c2cc(=O)[nH]c3ccc(S(=O)(=O)N4CCCCC4C)cc23)c1` (stereo not given), inactive: -16%; under `COc1ccccc1/C=C(\C#N)c1nc(-c2cc3ccccc3oc2=O)cs1`, inactive: 8.31%. Then `CCC(=O)Nc1ccc(S(=O)(=O)NCc2cccn2Cc2cccc(C)c2)cc1`, with inactive: 42%. `CCOc1ccc(-c2cc(C)n3nc(C(=O)Nc4cc(Cl)ccc4O)cc3n2)cc1`: the activation is inactive: 13.9%. Under `COc1cccc(NC(=O)Cn2c(=O)n(Cc3nc(-c4ccccc4)no3)c(=O)c3ccccc32)c1` stands inactive: -8.72%. Under `O=C(NCCC1=CCCCC1)c1ccc2c(c1)ncn2-c1cccc(Cl)c1` stands inactive: -10.1%.
